Data on nine molecules can be found in US20160038588A1 (Amgen, published 2016).

The target of assay [1] is T1, recombinant mature myostatin (human, produced in E. coli) (human, UniProt O14793 267-375).
T1 construct: mature; Used immobilized (BIAcore, KinExA beads) or in solution; also called GDF-8
T1 sequence (looked up): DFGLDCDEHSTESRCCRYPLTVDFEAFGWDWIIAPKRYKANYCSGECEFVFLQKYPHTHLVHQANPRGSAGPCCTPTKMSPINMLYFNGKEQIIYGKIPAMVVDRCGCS
Briefly: KinExA solution based assay or BIAcore (table does not say which). A general note: A kinetic exclusion assay measures how much of one partner remains free in solution.

The target in assay [2] is T1, recombinant mature myostatin (human, …). As to the kind of experiment: cell-based or functional assay.
Assay [3] shares this target. As to the kind of experiment: BIAcore, myostatin immobilized on CM5 chip. In general terms: In SPR one partner is held on a chip, and binding of the other changes the refractive index at the surface.
Assay [4] shares this target. As to the kind of experiment: cell-based or functional assay. The source holds these as a separate data set.

Like-named read-outs stand apart in the source and are kept apart here.

By Kd is commonly meant the concentration at which binding is half-saturated.

B1: mTN8-19-32 peptibody (Fc fusion)
chain: [here human IgG1 Fc without letters]GGGGGAQVADHGHCTRWPWMCPPQGWGLE
notes: also called 1x mTN8-19-32
Turning to B1, in assay [1], the Kd was 9 pM.

B2: mTN8-19-22 peptibody (Fc fusion)
chain: [here human IgG1 Fc without letters]GGGGGAQTFSQGHCTRWPWMCPPQGWGLE
notes: also called 1x mTN8-19-22
For the molecule B2, the Kd in assay [1] came out at 4 pM.

B3: mTN8-19-21 peptibody (Fc fusion)
chain: [here human IgG1 Fc without letters]GGGGGAQSEYQGLCTRWPWMCPPQGWKLE
notes: also called 1x mTN8-19-21
On to B3, for which the Kd in assay [1] was 6 pM.

B4: mTN8-19-33 peptibody (Fc fusion)
chain: [here human IgG1 Fc without letters]GGGGGAQPESQGHCTRWPWMCPPQGWGLE
notes: also called 1x mTN8-19-33
Consider B4, for which the Kd in assay [1] is 21 pM.

B5: mTN8-19 Con1 peptibody (Fc fusion)
chain: [here human IgG1 Fc without letters]GGGGGAQVATQGQCTRWPWMCPPQGWGLE
notes: also called 1x mTN8-19-con1
Regarding B5, the Kd in assay [1] turned out to be 20 pM.

B6: mTN8-19-7 peptibody (Fc fusion)
chain: [here human IgG1 Fc without letters]GGGGGAQLADHGQCIRWPWMCPPEGWELE
notes: also called 1x mTN8-19-7
Regarding B6, the “IC50, C2C12 pMARE-luc assay” value in assay [2] is 1.78 nM. The Kd in assay [1] was determined as 10 pM.

B7: Myostatin-2xTN8-19 kc peptibody (Fc fusion)
chain: [here human IgG1 Fc without letters]GSGSATGGSGSTASSGSGSATGQGHCTRWPWMCPPYGSGSATGGSGSTASSGSGSATGQGHCTRWPWMCPPY
Take B7: in assay [3], the Kd was roughly 2000 pM. Moreover, the “IC50, C2C12 pMARE-luc assay” value in assay [4] is roughly 9 nM.

B8: 2X mTN8-19-21 peptibody (Fc fusion)
chain: [here human IgG1 Fc without letters]GGGGGAQSEYQGLCTRWPWMCPPQGWKLEGSGSATGGSGSTASSGSGSATGSEYQGLCTRWPWMCPPQGWKLE
In the case of B8, the Kd in assay [1] came out at 6 pM.

B9: 2X mTN8-19-33 peptibody (Fc fusion)
chain: [here human IgG1 Fc without letters]GGGGGAQPESQGHCTRWPWMCPPQGWGLEGSGSATGGSGSTASSGSGSATGPESQGHCTRWPWMCPPQGWGLE
Turning to B9, the Kd in assay [1] is 3 pM.
